The other results are listed elsewhere or left out. Repeats are few or missing, and single values can be far off.
Tested on: MEL-HO
Assay: cell count relative to DMSO control; melanoma cells; higher = more viable cells
Conditions: library dose: low library concentration; 72 h
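Further: cell number obtained by counting DAPI-stained nuclei in high-throughput microscope images with image analysis software, screen run in 1,536-well plates.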

SMILES	cell count
C[C@]12O[C@H](C[C@]1(O)CO)n1c3ccccc3c3c4c(c5c6ccccc6n2c5c31)CNC4=O [Lestaurtinib] + OCc1c[nH]c2ccccc12 [Indole-3-carbinol] (first compound 0.004 µM, partner dose 0.8 µM)	97.6%
C[C@]12O[C@H](C[C@]1(O)CO)n1c3ccccc3c3c4c(c5c6ccccc6n2c5c31)CNC4=O [Lestaurtinib] + CO[C@H]1C[C@@H]2CC[C@@H](C)[C@@](O)(O2)C(=O)C(=O)N2CCCC[C@H]2C(=O)O[C@H]([C@H](C)C[C@@H]2CC[C@@H](OCCO)[C@H](OC)C2)CC(=O)[C@H](C)/C=C(\C)[C@@H](O)[C@@H](OC)C(=O)[C@H](C)C[C@H](C)/C=C/C=C/C=C/1C [everolimus] (first compound 0.004 µM, partner dose 0.02 µM)	61.4%
C[C@]12O[C@H](C[C@]1(O)CO)n1c3ccccc3c3c4c(c5c6ccccc6n2c5c31)CNC4=O [Lestaurtinib] + Cn1c(=O)n(-c2ccc(C(C)(C)C#N)cc2)c2c3cc(-c4cnc5ccccc5c4)ccc3ncc21 [NVP-BEZ235] (first compound 0.004 µM, partner dose 0.004 µM)	75.5%
C[C@]12O[C@H](C[C@]1(O)CO)n1c3ccccc3c3c4c(c5c6ccccc6n2c5c31)CNC4=O [Lestaurtinib] + Nc1ccn([C@@H]2O[C@H](CO)[C@@H](O)C2(F)F)c(=O)n1 [gemcitabine] (first compound 0.004 µM, partner dose 0.0004 µM)	92.8%
Cn1cc(C2=C(c3cn(C4CCN(Cc5ccccn5)CC4)c4ccccc34)C(=O)NC2=O)c2ccccc21 [Enzastaurin] + CO[C@H]1C[C@@H]2CC[C@@H](C)[C@@](O)(O2)C(=O)C(=O)N2CCCC[C@H]2C(=O)O[C@H]([C@H](C)C[C@@H]2CC[C@@H](OCCO)[C@H](OC)C2)CC(=O)[C@H](C)/C=C(\C)[C@@H](O)[C@@H](OC)C(=O)[C@H](C)C[C@H](C)/C=C/C=C/C=C/1C [everolimus] (first compound 0.8 µM, partner dose 0.02 µM)	91.6%
C[C@]12O[C@H](C[C@]1(O)CO)n1c3ccccc3c3c4c(c5c6ccccc6n2c5c31)CNC4=O [Lestaurtinib] + Nc1cccc2c1CN(C1CCC(=O)NC1=O)C2=O [lenalidomide] (first compound 0.004 µM, partner dose 1 µM)	93.2%
C[C@]12O[C@H](C[C@]1(O)CO)n1c3ccccc3c3c4c(c5c6ccccc6n2c5c31)CNC4=O [Lestaurtinib] + CN(c1ncccc1CNc1nc(Nc2ccc3c(c2)CC(=O)N3)ncc1C(F)(F)F)S(C)(=O)=O [PF562271] (first compound 0.004 µM, partner dose 0.08 µM)	103%
C[C@]12O[C@H](C[C@]1(O)CO)n1c3ccccc3c3c4c(c5c6ccccc6n2c5c31)CNC4=O [Lestaurtinib] + CC(=O)O[C@@]12CO[C@@H]1C[C@H](O)[C@@]1(C)C(=O)[C@H](O)C3=C(C)[C@@H](OC(=O)[C@H](O)[C@@H](NC(=O)OC(C)(C)C)c4ccccc4)C[C@@](O)([C@@H](OC(=O)c4ccccc4)[C@H]21)C3(C)C [Docetaxel] (first compound 0.004 µM, partner dose 0.0001 µM)	62.2%
C[As](C)SC[C@H](NC(=O)CC[C@H](N)C(=O)O)C(=O)NCC(=O)O [Darinaparsin] + O=C(Nc1ccccc1)c1cc([N+](=O)[O-])ccc1Cl [GW9662] (first compound 0.4 µM, partner dose 2 µM)	78.4%
C[As](C)SC[C@H](NC(=O)CC[C@H](N)C(=O)O)C(=O)NCC(=O)O [Darinaparsin] + Cc1cc(SCc2sc(-c3ccc(C(F)(F)F)c(F)c3)nc2C)ccc1OCC(=O)O [GW0742] (first compound 0.4 µM, partner dose 2 µM)	107%
C[C@]12O[C@H](C[C@]1(O)CO)n1c3ccccc3c3c4c(c5c6ccccc6n2c5c31)CNC4=O [Lestaurtinib] + CCCS(=O)(=O)Nc1ccc(F)c(C(=O)c2c[nH]c3ncc(Cl)cc23)c1F [PLX4720] (first compound 0.004 µM, partner dose 0.08 µM)	108%

— the supplement of paper PMC4604168 (melanoma cell lines)
